{"sequences": {"note": "Amino acid sequences for entries named in this document (tags omitted). A change or cut given only in a name is not applied to a line headed by its entry. Chains listed by the source or under a name are the forms on record and can include a tag or linker.", "USP46 carboxy-terminal fragment (243–366) in pNLS(SV40)-GFP (P62068, form named)": "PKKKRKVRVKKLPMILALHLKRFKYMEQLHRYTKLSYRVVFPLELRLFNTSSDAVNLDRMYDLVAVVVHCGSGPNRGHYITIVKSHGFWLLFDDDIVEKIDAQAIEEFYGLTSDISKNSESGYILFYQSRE", "USP46 central fragment (165–259) in pNLS(SV40)-GFP (P62068, form named)": "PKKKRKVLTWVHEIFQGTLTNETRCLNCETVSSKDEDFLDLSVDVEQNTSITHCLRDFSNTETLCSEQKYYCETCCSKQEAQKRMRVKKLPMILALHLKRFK", "UniProt Q8TAF3": "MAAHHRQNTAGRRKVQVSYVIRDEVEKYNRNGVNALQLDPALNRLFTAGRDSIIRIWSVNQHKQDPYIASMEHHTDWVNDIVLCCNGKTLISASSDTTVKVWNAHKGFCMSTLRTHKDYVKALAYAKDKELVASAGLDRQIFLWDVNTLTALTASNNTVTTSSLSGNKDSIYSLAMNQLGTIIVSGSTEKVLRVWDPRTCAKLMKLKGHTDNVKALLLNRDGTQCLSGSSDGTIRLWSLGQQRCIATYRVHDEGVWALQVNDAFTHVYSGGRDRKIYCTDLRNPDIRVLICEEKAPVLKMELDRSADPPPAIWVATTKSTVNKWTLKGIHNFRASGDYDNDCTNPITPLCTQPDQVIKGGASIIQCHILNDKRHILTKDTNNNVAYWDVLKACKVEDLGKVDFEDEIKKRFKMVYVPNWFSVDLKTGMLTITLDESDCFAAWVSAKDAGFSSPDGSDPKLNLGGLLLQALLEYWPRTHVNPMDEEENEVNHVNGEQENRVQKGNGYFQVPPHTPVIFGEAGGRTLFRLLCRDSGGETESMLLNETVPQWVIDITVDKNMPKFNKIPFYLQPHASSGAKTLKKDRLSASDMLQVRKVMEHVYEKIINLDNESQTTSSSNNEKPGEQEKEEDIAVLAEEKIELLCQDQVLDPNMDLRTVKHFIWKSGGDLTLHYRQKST"}, "source": "paper PMC4326527", "experiment_in_all_cases": "nuclear relocation assay; 293T cells co-transfected with UAF1-mRFP and a GFP- or YFP-tagged nuclear DUB variant; nuclear accumulation of UAF1-mRFP seen by confocal microscopy in fixed cells (live cells too for USP1 WT, S313A, S313D; also after USP1 siRNA)", "key": {"[1]": {"molecular_target": "T1, GFP-USP1 wild type (human) (UniProt O94782)", "T1 sequence": "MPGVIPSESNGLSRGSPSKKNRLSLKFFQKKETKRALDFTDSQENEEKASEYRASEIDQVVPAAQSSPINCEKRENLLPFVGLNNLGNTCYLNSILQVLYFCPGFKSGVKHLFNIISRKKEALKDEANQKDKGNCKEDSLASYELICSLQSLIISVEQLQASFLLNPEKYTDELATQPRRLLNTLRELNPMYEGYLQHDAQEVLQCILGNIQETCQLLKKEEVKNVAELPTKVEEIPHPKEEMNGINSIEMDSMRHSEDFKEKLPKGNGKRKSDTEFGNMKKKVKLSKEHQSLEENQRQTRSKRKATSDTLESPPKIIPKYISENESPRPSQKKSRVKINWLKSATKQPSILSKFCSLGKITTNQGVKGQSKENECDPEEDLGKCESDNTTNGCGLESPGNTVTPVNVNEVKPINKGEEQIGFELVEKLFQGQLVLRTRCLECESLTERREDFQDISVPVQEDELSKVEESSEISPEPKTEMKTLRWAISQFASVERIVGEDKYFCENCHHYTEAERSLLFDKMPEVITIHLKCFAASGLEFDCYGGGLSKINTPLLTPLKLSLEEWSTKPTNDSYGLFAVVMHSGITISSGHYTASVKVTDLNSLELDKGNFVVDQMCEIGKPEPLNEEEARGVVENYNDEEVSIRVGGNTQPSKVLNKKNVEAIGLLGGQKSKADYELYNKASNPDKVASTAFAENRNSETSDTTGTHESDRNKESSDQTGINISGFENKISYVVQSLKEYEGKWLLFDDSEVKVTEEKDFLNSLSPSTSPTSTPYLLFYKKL"}, "[2]": {"molecular_target": "T2, GFP-USP1^S313A (human) (UniProt O94782)", "T2 sequence": "T1 sequence with S313A"}, "[3]": {"molecular_target": "T3, YFP-USP1(235–408) (human) (UniProt O94782)", "T3 sequence": "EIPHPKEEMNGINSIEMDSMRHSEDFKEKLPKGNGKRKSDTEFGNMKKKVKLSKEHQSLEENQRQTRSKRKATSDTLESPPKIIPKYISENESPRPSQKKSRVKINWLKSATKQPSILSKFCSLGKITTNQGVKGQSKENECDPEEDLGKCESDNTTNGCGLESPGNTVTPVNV"}, "[4]": {"molecular_target": "USP46 carboxy-terminal fragment (243–366) in pNLS(SV40)-GFP (Simian virus 40 | not stated) (UniProt P62068)"}, "[5]": {"molecular_target": "USP46 central fragment (165–259) in pNLS(SV40)-GFP (Simian virus 40 | not stated) (UniProt P62068)"}}, "note": "Substitutions are numbered along the chain they refer to. These are yes or no findings as the source states them, for the method shown. Some binding calls cover weakened binding; strength is not graded here. For some assays here: Tags and fused reporters may be left off the sequences shown."}
{"substance": "UAF1-mRFP (from UniProt Q8TAF3 1-677)", "values": [{"measurement": "binding", "setting": "[1]", "result": "binds"}, {"measurement": "binding", "setting": "[2]", "result": "binds"}, {"measurement": "binding", "setting": "[3]", "result": "no binding"}, {"measurement": "binding", "setting": "[4]", "result": "no binding"}, {"measurement": "binding", "setting": "[5]", "result": "binds"}]}
